Assay results taken from PMC4336329 (PLoS ONE, 2015).
The whole screen tested about 310,000 compounds, of which about 14,000 (4.5%) showed an effect of 50% or more. The effect is printed as a negative number. The list shows a part of the results.

Biological target: human ether-à-go-go-related gene (hERG) potassium channel (human, UniProt Q12809)
Experiment: primary screen, population patch clamp on CHO cells stably expressing hERG
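Further: peak tail current of the secondary pulse compared with the same well before compound.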

human ether-à-go-go-related gene (hERG) potassium channel, sequence (Q12809 whole entry, looked up): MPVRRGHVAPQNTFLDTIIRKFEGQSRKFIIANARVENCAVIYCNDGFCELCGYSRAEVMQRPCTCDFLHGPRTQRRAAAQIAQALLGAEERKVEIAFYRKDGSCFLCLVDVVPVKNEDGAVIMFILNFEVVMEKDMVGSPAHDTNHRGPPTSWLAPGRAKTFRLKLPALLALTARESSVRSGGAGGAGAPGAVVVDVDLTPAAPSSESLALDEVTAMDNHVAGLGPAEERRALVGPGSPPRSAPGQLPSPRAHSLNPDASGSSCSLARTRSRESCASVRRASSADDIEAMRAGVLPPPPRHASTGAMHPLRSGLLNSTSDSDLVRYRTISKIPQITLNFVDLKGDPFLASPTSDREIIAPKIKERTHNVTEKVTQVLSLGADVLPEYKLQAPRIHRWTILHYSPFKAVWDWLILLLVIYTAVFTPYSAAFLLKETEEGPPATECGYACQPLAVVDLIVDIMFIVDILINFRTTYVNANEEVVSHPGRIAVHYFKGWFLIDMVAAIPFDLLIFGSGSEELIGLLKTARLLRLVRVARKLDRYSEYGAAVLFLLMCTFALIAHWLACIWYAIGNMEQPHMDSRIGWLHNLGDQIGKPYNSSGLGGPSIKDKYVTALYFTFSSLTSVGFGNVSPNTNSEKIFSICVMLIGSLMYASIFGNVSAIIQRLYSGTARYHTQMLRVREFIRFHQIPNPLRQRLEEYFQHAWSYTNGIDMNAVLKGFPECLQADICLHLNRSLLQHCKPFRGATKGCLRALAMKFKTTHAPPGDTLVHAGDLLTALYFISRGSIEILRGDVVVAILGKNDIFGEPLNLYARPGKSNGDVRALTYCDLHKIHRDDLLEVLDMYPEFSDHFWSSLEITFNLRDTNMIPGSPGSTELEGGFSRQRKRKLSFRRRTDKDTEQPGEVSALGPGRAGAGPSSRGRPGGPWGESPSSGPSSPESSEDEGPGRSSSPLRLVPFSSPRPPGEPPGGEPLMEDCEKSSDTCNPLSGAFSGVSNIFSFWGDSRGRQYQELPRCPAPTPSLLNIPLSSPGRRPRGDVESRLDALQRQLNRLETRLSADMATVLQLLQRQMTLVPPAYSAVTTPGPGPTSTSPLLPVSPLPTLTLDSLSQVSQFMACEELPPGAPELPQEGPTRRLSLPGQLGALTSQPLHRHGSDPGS

Point of comparison: `O=c1c(Cc2ccc(F)cc2)c(O)ccn1CCCn1ccnc1`, “hERG current change (%, negative = inhibition) at 10uM” value 20.1%. Against it:
- Nc1nnc(Cc2ccccc2F)s1 — lower, -8.84%
- Cc1ccc(NC(=O)COC(=O)C2=NN(c3ccccc3)C(=O)CC2)c(Br)c1 — lower, 0.65%
- COC(=O)c1cc(O)cc(OC)c1C(=O)c1c(O)cc(C)cc1O — lower, 4.87%
- Cc1c(Cl)cccc1NC(=O)CC1SC(=NCC2CCCO2)NC1=O (stereo not drawn) — lower, 3.76%
- COc1ccccc1NC(=O)C(C)OC(=O)C1CCN(S(=O)(=O)c2ccc(C)c(C)c2)CC1 (stereo not drawn) — lower, -4.41%
- COc1ccccc1Sc1ccccc1CC(C)N.Cl.O (stereo not drawn) — lower, -16.6%
- CC1CC(C)CN(CCCNC(=O)C2CCCN(c3nnc(N4CCCC4=O)s3)C2)C1 (stereo not drawn) — lower, 8.5%
- CCn1ccnc1CN1CCCC(C(=O)c2cc(C)c(OC)c(C)c2)C1 (stereo not drawn) — lower, -23.2%
- OCCNCCCCOc1ccccc1F — lower, -9.69%
- COc1ccc(Cl)cc1NC(=O)CSc1sc2c(O)cc(=O)[nH]c2c1C#N — lower, 4.1%
- CCc1cccc(NC(=O)CSC2=NS(=O)(=O)c3ccccc32)c1 — lower, -2.44%
- Clc1ccc(OCCCN2CCCC2)cc1Cl.O=C(O)C(=O)O — lower, -67.7%
- Br.COC(=O)Cn1c(=N)n(CCN2CCCCC2)c2ccccc21 — lower, -19.2%
- O=C(CSc1nc(-c2ccc(Cl)cc2)[nH]c(=O)n1)Nc1cccc(Cl)c1 — higher, 22.3%
- O=C(Nc1ccc(Oc2ccsc2C(=O)O)cc1)c1ccccc1 — lower, 7.36%
- Cc1cccc(C)c1NC(=O)COC(=O)c1c(C)nn(-c2ccccc2)c1C — lower, -4.61%
- Cc1ccc(C)c(OCC(=O)Nc2cccc(C(=O)O)c2)c1C — lower, -28.6%
- CCOc1ccc(NC(=O)Nc2ccc(N(C)C(C)=O)cc2)cc1 — lower, -2.39%
- Cc1[nH]n(-c2ncc(-c3ccccc3)s2)c(=O)c1C(c1ccc(Cl)cc1)C(C#N)C#N (stereo not drawn) — lower, 14.9%
- CCN(CC)C(=O)c1scc2c1OCCO2 — lower, 13.2%
- O=C(Nc1cccc(Cl)c1)C1CCN(C(=O)c2cccs2)CC1 — lower, -16.8%
- CCCC(=O)Nc1ccc2nn(-c3ccc(OC)cc3)nc2c1 — lower, 9.41%
- C=CCn1c(SCC(=O)NC2CCCCC2)nnc1-c1sc(N)nc1C — lower, -2.48%
- CN1C2=C(C#N)C(c3ccccc3)(C(F)(F)F)NC(=O)N2c2ccccc21 (stereo not drawn) — lower, 4.12%
- CN1CCOCCOc2ccccc2OCCOCC1 — lower, 7.5%
- Cc1nc(C)c(NC(=O)OC(C)C)cc1NC(=O)OC(C)C — lower, 16.3%
- Cc1ccc(C(=O)N/C(=C\c2ccc(-c3ccccc3[N+](=O)[O-])o2)C(=O)NCCCN2CCOCC2)cc1 — lower, -61.9%
- CSc1ncc(C(C)=O)c(C)n1 — lower, 16.4%
- COc1ccc(/C=N\NC(=O)CC(=O)Nc2cccc(Cl)c2)cc1OC — lower, -9.69%
- CN1C(=O)CC(=O)N(C)c2cc(S(=O)(=O)N(C)Cc3ccccc3)ccc21 — lower, -9.17%
- COc1ccc(S(=O)(=O)NC(N)=NCCc2ccccc2OC)cc1 — lower, -4.72%
- Oc1ccc(C[C@H]2CNCCN2CCc2cccc3ccccc23)cc1 — lower, -17.7%
- CS(=O)(=O)N1CCCC(C(=O)NCCc2ccccc2)C1 (stereo not drawn) — lower, -4.28%
- COc1ccc(/C=C/C(=O)c2cc(Cl)ccc2O)c(OC)c1 — lower, -7.04%
- CCS(=O)(=O)N1CCC(C(=O)Oc2ccccc2OC)CC1 — lower, 18.5%
- CCOc1ccc(NC(=O)COc2ccc(C(=O)NCC3CCCO3)cc2OC)cc1 (stereo not drawn) — lower, -13.4%
- COc1ccc(NC(=S)NCCc2ccc(F)cc2)c(OC)c1 — lower, -19.4%
- CCOc1ccc(OCc2cccc(C(=O)N3CCOCC3)c2)cc1 — lower, -1.62%
- CC(=O)c1sc(-c2ccccn2)nc1C — lower, 16.8%
- CCc1cccc(CC)c1NC(=O)C1CN(S(=O)(=O)c2ccccc2)CCN1S(=O)(=O)c1ccccc1 (stereo not drawn) — lower, 9.16%
- CC(=O)c1cc(-c2ccccc2)n(CC(=O)N2CCCC2)c1C — lower, 13.3%
- Nc1nnc(SCC(=O)Nc2sc3c(c2C(=O)c2ccccc2)CCCC3)s1 — lower, -2.05%
- CC(OC(=O)/C=C/c1ccccc1)C(=O)Nc1ccc2c(c1)OCCO2 (stereo not drawn) — lower, 16.7%
- CN1CCN(CCCNC(=O)c2ccc(NC(=O)C3=CSCCO3)cc2)CC1 — lower, 11.5%
- O=C(O)C(Br)CBr (stereo not drawn) — higher, 23.6%
- Cc1nonc1C1CCCN1Cc1cn[nH]c1-c1ccc(-c2ccccc2)cc1 (stereo not drawn) — lower, -24.6%
- COc1cc(CCC(=O)NCc2ccc3c(c2)OCO3)cc(OC)c1OC — lower, 3.07%
- CC(CSc1nc2ccccc2s1)Cn1c(N2CCCC2)nc2c1c(=O)[nH]c(=O)n2C (stereo not drawn) — lower, -38.2%
- O=C(CSc1ncnc2c1oc1ccccc12)Nc1nc2ccccc2s1 — lower, 11.1%
- C/C(=N\Nc1ccc(C(F)(F)F)cn1)c1ccncc1 — lower, -17.5%
- CC1CCCCN1C(=O)CSc1nnc(-c2cccnc2)n1C1CCCCC1 (stereo not drawn) — lower, -15.5%
- CCOC(=O)COc1ccc(Oc2nc(C)cc(OC)n2)nn1 — lower, -7.8%
- O=c1c2ccccc2sn1-c1cc(S(=O)(=O)N2CCOCC2)ccc1N1CCOCC1 — lower, 10.8%
- Cc1cccc2cc(CN(CCCO)C(=O)Nc3ccccc3Cl)c(=O)[nH]c12 — lower, 5.32%
- COc1ccc(/C=N/Nc2cn[nH]c(=O)c2Cl)cc1 — lower, 9.01%
- COc1ccc2c(C)c(CC(=O)N3C[C@H]4C[C@@H](C3)c3cccc(=O)n3C4)c(=O)oc2c1 — lower, -32.4%
- Cc1ccccc1P(=O)(CO)c1ccccc1C — lower, -0.622%
- CC(=O)Nc1nc(C(=O)Nc2c(C)n[nH]c2C)cs1 — lower, -2.95%
- Cc1ccc(N(CC(=O)NC2CCCCC2)C(=O)CCC(=O)Nc2nccs2)cc1 — lower, -4.93%
- Cc1ccc(C)c(S(=O)(=O)N/N=C/c2cccnc2)c1 — lower, 7.65%
- CSc1nc2[nH]c3c(c2c2nncn12)CC(C)(C)OC3 — lower, 4.02%
- Cc1ccc2nc(-c3cccnc3)cc(C(=O)N3CCN(c4ccc([N+](=O)[O-])cc4)CC3)c2c1 — lower, -68.2%
- CCCOc1ccc(N2C(=O)CC(NCc3ccc(S(N)(=O)=O)cc3)C2=O)cc1 (stereo not drawn) — lower, 4.38%
- CCOC(=O)c1c(C)[nH]c(C)c1C(=O)COC(=O)/C=C/c1ccc(OC(F)F)cc1 — lower, -24.1%
- CCCn1c(=O)c(C(=O)NNS(=O)(=O)c2ccc(NC(=O)OC)cc2)c(O)c2ccccc21 — lower, 9.85%
- O=C(Nc1ccc(S(=O)(=O)Nc2ccc(F)cc2)cc1)c1ccc(CN2CCOCC2)cc1 — lower, -21.4%
- CCc1nnc(NC(=O)CCC(=O)NCC2CCCO2)s1 (stereo not drawn) — lower, -23.5%
- CN1CCN(C(=O)CCCN2C(=O)/C(=C/c3ccccc3)SC2=S)CC1 — lower, -31.6%
- CCn1nc2cc(C(=O)NCC34CC5CC(CC(C5)C3)C4)ccc2c1OC — lower, -7.34%
- N#Cc1ccc(C(=O)NCCCSc2ccccc2)cc1 — lower, -32.8%
- COCCCN1CCN(C2Cc3ccccc3Sc3ccc(Cl)cc32)CC1.O=C(O)/C=C\C(=O)O (stereo not drawn) — lower, -73.5%
- CC1(C)Cc2c(sc3nc4n(c(=N)c23)CCCCC4)CO1.Cl — lower, -0.896%
- O=C(NCCc1ccccc1Cl)C1CCC(=O)N(CCCc2ccccc2)C1 (stereo not drawn) — lower, -34.1%
- O=C(CC1CCCC1)N1CCCC(Nc2cccc(F)c2)C1 (stereo not drawn) — lower, -9.5%
- C/C(CC(=O)NC(C)C)=N\NC(=O)COc1cc(C)c(Br)cc1Br — lower, -46.8%
- Cc1ccsc1C(=O)NCC(C)(C)N1CCOCC1 — lower, -9.41%
- Cn1c(-c2ccc(F)cc2)cnc1SCC(=O)Nc1ccccc1N1CCOCC1 — lower, -1.23%
- O=C(NCCS(=O)(=O)NCc1ccc(Cl)cc1)c1ccccc1 — lower, -13.6%
- COc1ccccc1-c1coc2c(CN3CCCCC3C)c(O)ccc2c1=O (stereo not drawn) — lower, 6.44%
- O=C1c2ccccc2C(O)(Cc2ccccc2)N1Cc1ccco1 (stereo not drawn) — lower, 10.1%
- CC(CCc1ccccc1)NC(=O)/C=C/c1ccc(F)cc1 (stereo not drawn) — lower, -23.2%
- Brc1ccc(-c2nc(-c3cccnc3)no2)o1 — lower, -2.14%
- O=C(Nc1ncc2c(n1)-c1ccccc1OC2)c1cccc([N+](=O)[O-])c1 — lower, -16.5%
- C=CCOC(=O)c1ccccc1N — lower, 17.5%
- C[C@@H]1C=C(C(=O)N2CCOCC2)O[C@H](OCc2ccc(CO)cc2)C1 — lower, 10.3%
- Cc1nc2sc(C(c3ccccc3)N3CCOCC3)c(O)n2n1 (stereo not drawn) — lower, 12.6%
- Fc1ccc(-n2c(Cc3ccccc3)nnc2SCc2nc(-c3cccs3)no2)cc1 — lower, -8.41%
- COC(=O)c1cc(OC)c(OC)cc1NCC(=O)Nc1ccc(OC)c(OC)c1 — lower, 19%
- CCN(CC)c1nc(C)c(C(C)=O)cc1C#N — lower, 0.00458%
